Patent US5814610A, “Osteogenic growth oligopeptides and pharmaceutical compositions containing them” (Yissum Research Development Company of the Hebrew …, priority 1993, dated 1998)
At least one peptide structure holds a part that was inferred or is arguable (an end, a ring closure or a residue). Some compounds share one wording; it may come from a single statement. Residues, ends and D or L forms follow the SMILES beside them. *: point of attachment. X1 = O=C(CCc1ccc(O)c(I)c1)*

How the values were obtained:
NIH 3T3 fibroblasts = test: Proliferative activity: fibroblastic NIH 3T3 cell number in vitro; format: cell-based; settings: NIH 3T3 cells; for Proliferative activity, Percent Activity of Full Length Peptide [OGP(1-14)], Mean: mean of experiments
[1] = tested on: osteoblastic MC3T3E1 cells; test: Proliferative activity: osteoblastic MC3T3E1 cell number in vitro; format: cell-based; settings: for Proliferative activity, Percent Activity of Full Length Peptide [OGP(1-14)], Mean: MC3T3 E1 cells, mean of experiments; for Proliferative effect on cell number (magnitude, compared with positive sOGP control): MC3T3E1 cells

| Compound | Proliferative activity, Percent Activity of Full Length Peptide [OGP(1-14)], Mean (NIH 3T3 fibroblasts) [%] | Proliferative activity, Percent Activity of Full Length Peptide [OGP(1-14)], Mean [1] [%] | Proliferative effect on cell number (magnitude, compared with positive sOGP control) (NIH 3T3 fibroblasts) | Proliferative effect on cell number (magnitude, compared with positive sOGP control) [1] |
| --- | --- | --- | --- | --- |
| NCC(=O)N[C@@H](Cc1ccccc1)C(=O)NCC(=O)NCC(N)=O [OGP(11-14)NH2, Gly--Phe--Gly--Gly--NH2] (H-GFGG-NH2) | 33 | 25 | – | – |
| NCC(=O)N[C@@H](Cc1ccccc1)C(=O)O [OGP(11-12), Gly--Phe] (H-Gly-Phe-OH) | 0 | 0 | did not affect | did not affect |
| N[C@@H](Cc1ccc(O)cc1)C(=O)NCC(=O)N[C@@H](Cc1ccccc1)C(=O)NCC(=O)O [OGP(10-13), Tyr--Gly--Phe--Gly] (H-YGFG-OH) | 89 | 58 | intermediate values | intermediate values |
| N[C@@H](Cc1ccccc1)C(=O)NCC(=O)NCC(=O)O [OGP(12-14), Phe--Gly--Gly] (H-Phe-Gly-Gly-OH) | 0 | 0 | did not affect | did not affect |
| O=C(O)CNC(=O)CNC(=O)[C@H](Cc1ccccc1)NC(=O)CNC(=O)CCc1ccc(O)c(I)c1 [BH*-OGP(11-14)] (X1-GFGG-OH) | 80 | 113 | – | – |
| N[C@@H](Cc1ccc(O)cc1)C(=O)NCC(=O)N[C@@H](Cc1ccccc1)C(=O)O [OGP(10-12), Tyr--Gly--Phe] (H-Tyr-Gly-Phe-OH) | 57 | 41 | intermediate values | intermediate values |
| NCC(=O)N[C@@H](Cc1ccccc1)C(=O)NCC(=O)NCC(=O)O [OGP(11-14), Gly--Phe--Gly--Gly] (H-GFGG-OH) | 68 | 66 | intermediate values | intermediate values |
| NCC(=O)N[C@@H](Cc1ccccc1)C(=O)NCC(=O)O [OGP(11-13), Gly--Phe--Gly] (H-Gly-Phe-Gly-OH) | 0 | 0 | did not affect | did not affect |
